From paper PMC7819943, “Rice protein-binding microarrays: a tool to detect cis-acting elements near promoter regions in rice” come the findings set out here.

This is one part of the list.

The test deals with T1, OsWOX13 (Oryza sativa, UniProt Q5QMM3 1-267).
T1 sequence: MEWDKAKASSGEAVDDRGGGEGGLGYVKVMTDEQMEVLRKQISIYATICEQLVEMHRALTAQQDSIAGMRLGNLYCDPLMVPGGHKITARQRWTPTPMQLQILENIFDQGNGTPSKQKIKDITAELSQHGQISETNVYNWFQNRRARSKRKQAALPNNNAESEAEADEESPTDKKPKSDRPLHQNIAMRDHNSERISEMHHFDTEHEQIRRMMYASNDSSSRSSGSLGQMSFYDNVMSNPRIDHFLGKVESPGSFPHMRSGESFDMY
Put plainly: protein-binding microarray (RPBM); PBS, 2% BSA, 51.3 ng/ul salmon testes DNA, 50 uM zinc acetate, 200 nM TF, 25 C, 1 h; high values mean tight binding. The settings on record: protein: recombinant; tags: N-terminal polyhistidine and DsRed monomer fusion (pET32a); label: CyDye5-dUTP incorporated in the synthesized complementary strand; 3' TTTTT single-stranded linker to array surface; dsDNA, one strand shown. A digest of the protocol:
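Binding signal here means per-feature fluorescence intensity in arbitrary units. The values were read on an Axon 4000B scanner after a custom Agilent array, double-stranded by primer extension with Cy5-dUTP, was incubated with 200 nM protein at 25 °C for 1 h in PBS with 2% BSA, salmon testes DNA and 50 µM zinc acetate, then washed. The proteins were transcription factors with an N-terminal polyhistidine tag and DsRed, expressed in E. coli BL21-CodonPlus and purified on Ni–NTA.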
On to “ATGACTCATACTCTTAATTGTTATCTGTGTAAGTTGTGACCGGAGTCACCTAGTGCAG”, for which the binding signal was 4460 fluorescence intensity (a.u.).

For “AGATTAATTAGGCTTAATAGATTCGTCTACGTTTAATACTCGGAGTCACCTAGTGCAG”, the binding signal was 20900 fluorescence intensity (a.u.).

As to “AAATTGATGAAACGGTGTATGGTGAAGACGCTGATTCGTCCGGAGTCACCTAGTGCAG”, the binding signal was 5080 fluorescence intensity (a.u.).

As to “ATAATGATAATGACTAATTACTCCTCCGTTTCATACAGGTCGGAGTCACCTAGTGCAG”, the binding signal was 27600 fluorescence intensity (a.u.).

Regarding “TAGAAGTTTGATTGAAATTGAAACGATATGATGGAAAAGTCGGAGTCACCTAGTGCAG”, the binding signal is 44500 fluorescence intensity (a.u.).

“TGGGATAAATCACTTCTTCAATTAGGCCCGGTTTAGTTCTCGGAGTCACCTAGTGCAG”: the binding signal is 12500 fluorescence intensity (a.u.).

As for “AAAACCTTATCAATCATTCAAGGGATCTTTTCCCCTTTGACGGAGTCACCTAGTGCAG”, the binding signal was 12900 fluorescence intensity (a.u.).

With “GGGTGATATAAATTAGGAGGTGATAATAATTATTTCTTGGCGGAGTCACCTAGTGCAG”, the binding signal was 26700 fluorescence intensity (a.u.).

With “ACGCATCAACAGTGGAGGGAGGGGAGGGGAGGAGCTTCCCCGGAGTCACCTAGTGCAG”, the binding signal was 3270 fluorescence intensity (a.u.).

With “GATGGTGATTTGCCACTCGATACTAGCGACTATTGACTTGCGGAGTCACCTAGTGCAG”, the binding signal is 15200 fluorescence intensity (a.u.).

Turning to “CCTACCGCTATTTGCTTGATTAACAGCCGAATCATACCATCGGAGTCACCTAGTGCAG”, the binding signal was 4380 fluorescence intensity (a.u.).

With “TTGATGATTGGTGGAGGAAAAGGAACTTACTCCTTCCGTTCGGAGTCACCTAGTGCAG”, the binding signal was 49400 fluorescence intensity (a.u.).

“GCTTTACTCAATCAGCAGATACAGCTCATTTACAGCAAAGCGGAGTCACCTAGTGCAG”: the binding signal is 6660 fluorescence intensity (a.u.).

For the sequence “GGCTTATTATGTTTAGAAGATTAGAAAATCTACACAACATCGGAGTCACCTAGTGCAG”, the binding signal was 3360 fluorescence intensity (a.u.).

With “ATGGTTGATTGCTTGATCAAGGCATGCATCACTTGCTATGCGGAGTCACCTAGTGCAG”, the binding signal is 55800 fluorescence intensity (a.u.).

“CTAATCCCAGATTGCTAGTGATTAGCACGTAGATACATAGCGGAGTCACCTAGTGCAG”: the binding signal was 21700 fluorescence intensity (a.u.).

Take “CCACTCATAATTTAATTCGTCTATAATAAGATAGGTTTCTCGGAGTCACCTAGTGCAG”: the binding signal is 6270 fluorescence intensity (a.u.).

With “ATTGGACCTGAACACTGCTAATTAATTGGTATAAGTCATCCGGAGTCACCTAGTGCAG”, the binding signal was 8360 fluorescence intensity (a.u.).

Take “TTGGCTACATCGATTGATTGATCAGAGAGAGATATAACGACGGAGTCACCTAGTGCAG”: the binding signal is 21500 fluorescence intensity (a.u.).

Turning to “CAAGATAATTACAAGTTTATAAAACAAACTACTACAGGGACGGAGTCACCTAGTGCAG”, the binding signal is 27200 fluorescence intensity (a.u.).

In the case of “GAAGATTTAATTGCAACGAATTTAATGGTGCAATCGGATCCGGAGTCACCTAGTGCAG”, the binding signal was 23200 fluorescence intensity (a.u.).

Take “GTGTTTTCTATCAACAATCAACGACAGTTAGTTTTCTTTTCGGAGTCACCTAGTGCAG”: the binding signal is 5000 fluorescence intensity (a.u.).

Consider “ATTGATTATACTCGCCAGTCCTTCAGAGAAACCACGCCACCGGAGTCACCTAGTGCAG”, for which the binding signal was 22400 fluorescence intensity (a.u.).

As for “GAACAATCAATTTAATAGCCCCACACTGCGACGCAACTCTCGGAGTCACCTAGTGCAG”, the binding signal was 14400 fluorescence intensity (a.u.).

With “AAGGAAATTGGTGCTGATGTATGTGAAATGTGGGGATTTGCGGAGTCACCTAGTGCAG”, the binding signal was 19100 fluorescence intensity (a.u.).

As for “CTCTGAATCAAACTTCTCTAATTATATCTAGGCTTTGTTCCGGAGTCACCTAGTGCAG”, the binding signal is 3300 fluorescence intensity (a.u.).

Consider “CTAATAGGATAAATCAATTGGTAACCTTGTATGTCCATAACGGAGTCACCTAGTGCAG”, for which the binding signal was 13700 fluorescence intensity (a.u.).

As for “TTGCCAATTATGATTGGAGATTTACAAGTAGACTTCAATACGGAGTCACCTAGTGCAG”, the binding signal was 18500 fluorescence intensity (a.u.).

Consider “CCAACCTTAATTAATTAAGCTAAATTTCACGCTAATCCTACGGAGTCACCTAGTGCAG”, for which the binding signal was 44500 fluorescence intensity (a.u.).

For the sequence “ACGATGATTATGTACGATTTACGGTTGTGTATTTCATAGTCGGAGTCACCTAGTGCAG”, the binding signal is 29800 fluorescence intensity (a.u.).

As to “CACAGTGATATAACTCATTAATCTTACTTATTAATTTCTTCGGAGTCACCTAGTGCAG”, the binding signal is 3330 fluorescence intensity (a.u.).

For the sequence “CAATGATTTAGGCCAGGGGTTCCACTCAAAGGCCCAATAGCGGAGTCACCTAGTGCAG”, the binding signal was 4020 fluorescence intensity (a.u.).

In the case of “GGTACATGAACAATGGTTGATTGCTGGGGCTGAGCAGGGCCGGAGTCACCTAGTGCAG”, the binding signal was 8960 fluorescence intensity (a.u.).

Take “ATTAGTAAATATTAAATTAATCATAAGAAAATGTTTCACTCGGAGTCACCTAGTGCAG”: the binding signal was 4860 fluorescence intensity (a.u.).

Regarding “TGATTAGTGATTAGTGCTAATCATAATTAGTGCCTACAAGCGGAGTCACCTAGTGCAG”, the binding signal was 49200 fluorescence intensity (a.u.).

For the sequence “ACGTCATTATGAATGTAAATTGCACACAGGTAAATACAATCGGAGTCACCTAGTGCAG”, the binding signal is 3510 fluorescence intensity (a.u.).

For the sequence “CCAATCAACCAAGTAACAATGTAAACGGAGGTTTAACCACCGGAGTCACCTAGTGCAG”, the binding signal is 3140 fluorescence intensity (a.u.).

As for “AATAATTAAGCATCACTTTCATAAGTATACAGAAGAGAAACGGAGTCACCTAGTGCAG”, the binding signal was 6100 fluorescence intensity (a.u.).

On to “TTGTAATAATTAAAACTTAATTAATCATACATTAATACCACGGAGTCACCTAGTGCAG”, for which the binding signal was 17100 fluorescence intensity (a.u.).

“TTATTACTACTTAATTAGTGTGTAACTAACGTGTACATAACGGAGTCACCTAGTGCAG”: the binding signal is 12000 fluorescence intensity (a.u.).

For the sequence “TTGATAGGCATATTTCAATCTAGCACCCTATCATCTTAATCGGAGTCACCTAGTGCAG”, the binding signal was 18700 fluorescence intensity (a.u.).

On to “ATTCAAATTTGAAAAGTAAAATTTGGCTGAAATCTGATCGCGGAGTCACCTAGTGCAG”, for which the binding signal is 4260 fluorescence intensity (a.u.).
